Source: the supplement of paper PMC10126150
Sequences with one replicate were seen in a single cluster, so their values are uncertain.

System: ATP
Assay: switch fluorescence ratio, 500 uM ATP over buffer (Cy3 cluster intensity, sum of 5 cycles each) (fold (ratio)); higher = stronger signal-on switching upon ATP binding; sequences stand for … in TCGTCGGCAGCGTCAGATGTGTATAAGAGACAGTTTTTTTTTTTTTTTTTTTTTTTTT…TC
Details: aptamer strand: ATP DNA aptamer (quencher-CACCTGGGGGAGTATTGCGGAGGAAGG + anchor), 100 nM annealed; ATP concentration: 500 uM; one replicate
Procedure, shortened: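 After annealing to 100 nM quencher-labelled ATP aptamer, Cy3-labelled switching-strand clusters on a modified Illumina MiSeq flow-cell were imaged in selection buffer. A second image followed after 15 min with 500 uM ATP at 22 °C, and five such buffer/ATP cycles were done, each separated by NaOH stripping and re-annealing. The fluorescence ratio, averaged per switch-domain sequence, is summed target-cycle over summed buffer-cycle Cy3 intensity per cluster, with clusters outside 100-1000 RFU excluded.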
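Note: ATP exposure 15 min at 22 °C before imaging.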

Sequence	switch fluorescence ratio
ACAGTTGGG	1.02
TTATCAGCCT	1.08
ACGTCAATCA	1.27
CTGGCGGGAG	0.997
ACGCTAGATA	1.05
TGGATTCCGT	1
ATACAGTCT	1
TTGTACCTAA	1.1
TGCCTGCGTT	1.03
GCTTAAACCA	1.03
ATTGGCGCAA	1.62
CCCTTCGTTT	1.08
TTTAGATAG	1.04
ACATTAATCG	0.998
ACGGGCCGTA	0.921
GATAGCAGCC	1.11
AGATTATTAC	1.01
GGCAAGATTT	1.02
GGAATTCTTA	1.01
GTAGGAGTTA	1.28
AGAATATTGT	0.966
AATGCGTAAT	1.12
CTGGGTTGCT	1.02
TTCGTTTGT	0.983
GGGTAGCTGG	1.01
CATCGGATCG	0.967

Sequence	switch fluorescence ratio
GCTGGGCCTC	0.967
GGGATCCTAA	1.01
GATTTATCGT	1.01
CAGAATAGGG	1.03
ATAGAAATAA	0.986
AAAGTTGACT	1.01
GGATATTAAC	1.02
CCATATGAAT	1.03
ATTTACTGCT	1
AGCGTGACTA	0.993
ATGCTAGCCT	1.08
TGCACCCCTC	1.06
GAAAATGATC	1.06
TCTTTCAATT	1.02
CTAATTAGGT	0.99
TTGAGGTGA	1.08
CGATCGGTTA	1.02
CTTTCCGGGC	1.28
ACTGATAGTG	1.01
AGGTTCATGT	0.984
ATTGGATACA	1.02
ATCCCTACG	1.08
CTGTTTGGGC	0.969
GGCAGTCGCG	0.975
TATTGTCAT	0.979
AACATTGAAG	1.01

Sequence	switch fluorescence ratio
AAATAAACTA	1.03
GGGAGGTCTG	0.959
GACCATTGCG	0.969
GACGCTCTAA	1.6
ATACAAGAAG	1.03
ATTCTTGCAC	1.03
GCTCGGTCTG	0.989
CCACGGTAAC	1.41
GAGTGGGG	1.02
CCGACTCTAA	5.1
CTCATGAGGT	0.976
CGGGGTTCAC	0.962
AAAACTGTTG	1.02
CAATCTGGCC	1.02
ACCCTAGTGG	0.985
GTAACTGAGT	0.983
CTCCTTTTGG	0.984
TTAAATAAGC	0.999
CTCCTTGAAT	1.05
AGAAGAACAG	1.04
GCACCCTCTA	1.02
GGCCCAGGGT	1.65
CGGTCTTAA	0.986
GGCTAATTAG	1.14
CGTAACACCG	1.01
CGGCAGGCAT	1.01

Sequence	switch fluorescence ratio
GGATACTAAA	1.04
ATAGAAGGAT	0.977
TTCAGCTAGC	0.985
TCGTAATTCA	1.15
AGAAACTAC	1.04
ATGCGTGATG	1.02
AAAATTCGGA	0.97
TGGATCTGGT	0.978
TTACCTTGCG	1.01
GATTATCTAA	1.02
TGCGGCCTGG	0.971
AGGGTATGGA	1
TAGTGCCTTC	1
CCCCGAACCG	1.17
GGAGAAGAGG	0.967
GTGGTGCGGG	0.971
AAGCCATGGC	0.926
TATCGCTAAG	1.03
GTGGTTATGT	0.988
GAATGTCATC	0.972
CGACTTAGCA	1.04
GGGGAAGGTC	0.975
CATATGCG	1.07
CGAAGTGAGC	1.21
GGTAGATGTA	0.985
ATCCCACCGT	1.08

Sequence	switch fluorescence ratio
CCGTTACACT	1.2
GGTGCGTCCA	0.957
ACGTTTG	0.998
TGGGGTTCAA	1.02
AAGCGGATG	1
TATTGACTTA	0.968
TGATACCCTT	1.01
AACTATACCT	0.939
CTGGAAAGT	0.956
TATGAACGAA	1.02
ATGAAGCCCT	1.03
GGGTGTGGT	0.98
TTATCTAT	1.04
GTGTTTCTGT	0.972
CGACTGTGTA	1.03
CATCTAATGT	1.07
TCGCTAAATA	1.27
TTGTGGTTGA	1.05
ACATGGGAAA	1
AAAATTATGT	1.02
ACCCATGAAT	0.955
GGGAGTGCAA	1.04
GGCCTTTCAG	0.999
ACCGGACGGC	1.19
TTCCTGATCT	1.04
TATTCAAGCT	1.02

Sequence	switch fluorescence ratio
TACAGTCCAA	0.999
CAGGTGCAAG	1.18
ATGAGGACGG	0.994
AGACACGTCT	1.01
TACCGTACGT	1.31
AGTGCTGTGG	0.948
ACTGGTTATG	1.01
ATCTAGATAT	0.962
CTTCACGGTG	1.15
ATTATCCACT	0.971
AAAAGGCTA	1.02
GACTAACAGA	1.06
AAATGTGCGC	1.01
TTTTCAAGGC	1.02
AAGATCCACC	1.06
CAATTCATCA	1.03
CGGGGTAGT	1.01
TCATAGGTC	0.991
TTGGCGGAAG	0.997
AAGTTCTTGA	1
AGCGTCAGTT	1.03
CGTATTGGAA	0.949
CTGGTTCCTG	0.944
AACTGGTAGC	1.02
CGCTCACAGT	1.04
TACGGACG	1.12

Sequence	switch fluorescence ratio
TTTGCTGTT	1.02
GTTAGCCGAT	1
AAACACGACG	1.1
CGGGCCCTCC	0.99
AGCGTCATGG	1.04
TATATCTCAC	1.09
TAAGATTGGT	0.974
GCCTTCCTGG	1.44
CAGGTGTACA	1.04
AAACGACAGT	1.01
AGTATCACT	1.01
TGGTACTAAG	1.05
ATGCGTACAT	1.02
CAAAGTGGGG	0.995
TTGGAGGATA	0.984
GATTGAGCCG	1.01
TCAAGGTGTG	1.08
CTGAGTAGAT	1.06
TTACCACCAC	1.28
AGAGGTCACA	0.993
ACCTACACGT	1.23
TCGCATCAGG	1.34
CCACCACTGC	1.97
ATTAAATCCA	0.992
ATTTATGTA	1.01
ACCTTATTCT	1.05

Sequence	switch fluorescence ratio
ATGCCGGCA	1.04
ACTGTTAACA	1.1
AGCGAGCAC	1.1
AATCCGGACG	1.01
AAGTCACGGG	1.01
CGAGACTATG	1.02
AACTACATTT	1.02
GAAGGACGGA	1.01
AGGTTCGTGC	0.99
AACTATCAAC	0.99
AACGAGATCA	0.978
ATTAACTGAG	1.04
CGGTAAACTA	1.01
TTTGCGCAGT	1.15
GAAGGAAAAA	1.41
CGCTACTTGT	1.08
CGGAAGAAAA	0.974
ATTAAGGATA	1.01
GAGTTTAGG	0.943
